Measurements from the supplement of paper PMC3334620.
The full ranking holds about 33,000 sequences; the median of “E-score (-0.5 to 0.5)” is about -0.016, and the highest 2% start at about 0.31. This is one part of the list.

These sequences were tested against Cst6 (UniProt P40535) (assay: PBM E-score (8-mer binding enrichment) (E-score (-0.5 to 0.5)); higher = stronger / more preferred TF binding; most listed sequences are background and not binding sites). Settings: protein concentration: 200 nM; construct: GST-DNA-binding domain.
How it was run: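 Universal all-10-mer Agilent arrays, double-stranded by primer extension on fresh or once-stripped slides, were probed with about 100-200 nM GST-tagged yeast transcription factors made by PURExpress. Fluorescent anti-GST detected bound protein, and masliner normalised the scans. E-scores from the Universal PBM Analysis Suite were given to each ungapped eight-base word pooled with its reverse complement.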

Sequence | PBM E-score
GCGGACAC | 0.0039
CAAGCACG | 0.0319
AACCCCAT | -0.133
GACTCCCC | -0.35
GCGGCGTA | 0.23
AACCCCAC | -0.262
AAGATGCT | -0.128
GCGACAGC | -0.234
AAGAATGA | 0.294
CCCGTCCG | -0.302
CCAATCCA | -0.22
ACTCCAGC | -0.23
ACCACTAG | 0.00882
ACCGTCAT | 0.418
CGGCCCAG | -0.239
CCTCGACG | -0.106
CAGGGGTA | -0.313
CGCTAGCG | -0.28
AACCTTGT | -0.196
TCTTCCCA | -0.188
CAACCCGA | 0.0847
AAACTACC | 0.00827
ATTAATTA | 0.297
AGGAGTGA | 0.118
ACGTGGCC | -0.138

Sequence | PBM E-score
CGTTTCGA | 0.0477
ACGCGAAG | -0.0658
AAACACGG | -0.0188
AGAGGGGG | -0.43
ACATGGCA | 0.0593
ACATTGTG | 0.0401
AGCTCGAA | -0.045
CAATGGCG | -0.18
TCGAGGCA | 0.156
GTGCCGCA | 0.362
TCATTCCA | 0.0734
TCGAATCA | 0.0583
GCCCACAA | -0.222
ACGGCACC | 0.391
ACTCCTTA | -0.112
CATTCCTA | -0.0338
AAGTATAA | 0.158
CAGCCGGA | -0.0573
AATACTGC | -0.0664
CGTAGGGC | -0.199
AATTGACA | 0.0844
CAGCGGTA | 0.0522
CATAGAAG | 0.0768
ACGCCGCA | 0.336
TCCCTCCA | -0.237

Sequence | PBM E-score
AGCCTAGA | -0.13
CAGTTACC | -0.0833
GATAAATC | 0.0692
ACGGGACT | -0.177
ACCTAAGT | -0.0476
ATTGTCAA | 0.123
AACTAACC | 0.185
CGAGAGCC | -0.252
GAAATGGC | 0.0365
AAAAGCGC | 0.0701
CATTTTTC | 0.228
TCACCACA | 0.145
ATTACAAA | 0.213
CAGGTATC | -0.144
AACAATAC | 0.156
GTGCGTAA | 0.192
ACAAGAGC | -0.0171
CAGACAGC | -0.185
ATGTATTG | 0.208
AATTCCTG | -0.0708
CTTCGCAC | 0.0694
TGGAACAA | 0.153
AATGCGCA | -0.00595
AGTTACGG | 0.0767
GTCTCATA | -0.139

Sequence | PBM E-score
CGCTGCAC | -0.0108
GCCGTAAC | 0.198
CTGTTAAA | 0.157
AAATCGAG | -0.0139
ACCAGGGG | -0.24
ACTAATAC | 0.188
CGGCCTTC | 0.00035
CCATGTAC | -0.0837
GGTTTGTA | -0.0712
AAATCCGC | -0.0853
CGGCACAA | 0.228
ACAATTCG | 0.146
AGATGTTC | -0.155
GACCCACA | -0.00436
ATACGAAA | 0.192
CCGCCCGA | -0.176
AGACCCTA | -0.153
CAAGCCAC | -0.296
AAGTCTTC | -0.119
AAATACGC | 0.195
ATTCAGCG | 0.0604
CACCACCC | -0.0343
CAACCGCA | -0.129
ATGATCTC | 0.203
CGTACTTA | 0.0903

Sequence | PBM E-score
AACTTGGG | -0.112
GACCGCCA | -0.0766
CGTGAGTA | 0.0656
AAGCTCGC | -0.162
AAATAGTC | -0.234
GAGAAGGC | -0.166
CGAGGTGA | 0.211
CACTCCCC | -0.195
CCATGGGG | -0.191
GGAATCTA | 0.0645
CACTCTGG | -0.0859
AGCCAATA | -0.113
CGGGAGCA | -0.195
CACTTTGC | 0.0845
GGTGCAGA | -0.257
ATGAACCC | -0.022
TATGTCCA | -0.056
GCAGCAAC | -0.032
AAGCTAAC | 0.0262
ATATTGAG | 0.143
CTCCCTGA | -0.143
CACCAAAG | 0.132
CTACCTGA | -0.0536
CCGTCTTC | -0.116
AATTGCCT | 0.0958

Sequence | PBM E-score
AGACCCAT | -0.0534
ACGGAGAA | -0.0413
ATACATCC | 0.0476
CAATTTCC | -0.049
GATGCAGC | 0.0119
CAACTAGG | 0.0574
AGCGCTGG | -0.136
AGGCCGAT | -0.106
AACTTCCA | -0.178
AATCCATT | 0.186
GAGCTGGA | -0.241
GCCAACAC | 0.0682
GTGCAGTA | -0.148
CAATCTTC | 0.0992
ATCTCGTG | -0.0972
ATTCCCCC | -0.245
TGGTTTAA | 0.173
ATACGCAG | -0.101
CACGCCCC | -0.204
ATCACTCC | 0.133
GATAGCTA | -0.199
CGACTGAC | -0.00776
GTACCAGA | -0.199
CAAATATC | 0.2
CCCGTACA | -0.222

Sequence | PBM E-score
ACGCTTCT | -0.0858
ATGGCTTG | -0.155
ATTTACTG | 0.11
AACCTGTG | -0.142
AATTGGGA | 0.0995
TAACGCTA | 0.0178
AACAATGT | 0.056
CGATTCGA | 0.0945
CCGCGCAA | -0.0106
AATGCCCC | -0.169
ACACTAGT | -0.117
GTTTGCAA | 0.168
AGGTTGTC | -0.233
CGACGCTC | -0.00451
ATATTTTC | 0.193
ACGCTGTC | -0.194
AAGGCCTC | -0.0458
ACTCAAGA | -0.11
CTGCACAC | -0.13
CTGGGCCC | -0.307
CTACGAGC | -0.201
CCTAGTCG | -0.213
